According to a collection of fitness landscapes (doi:10.1126/science.1257360):
Some of the results follow.

B1: PhoQ; a variant is named by its letters at X, in order, P23837 (parent)
chain: MKKLLRLFFPLSLRVRFLLATAAVVLVLSLAYGMVALIGYSVSFDKTTFRLLRGESNLFYTLAKWENNKLHVELPENIDKQSPTMTLIYDENGQLLWAQRDVPWLMKMIQPDWLKSNGFHEIEADVNDTSLLLSGDHSIQQQLQEVREDDDDAEMTHSVAVNVYPATSRMPKLTIVVVDTIPVELKSSYMVWSWFIYVLSANLLLVIPLLWVAAWWSLRPIEALAKEVRELEEHNRELLNPATTRELTSLVRNLNRLLKSERERYDKYRTTLTDLTHSLKTPLXXLQXXLRSLRSEKMSVSDAEPVMLEQISRISQQIGYYLHRASMRGGTLLSRELHPVAPLLDNLTSALNKVYQRKGVNISLDISPEISFVGEQNDFVEVMGNVLDNACKYCLEFVEISARQTDEHLYIVVEDDGPGIPLSKREVIFDRGQRVDTLRPGQGVGLAVAREITEQYEGKIVAGESMLGGARMEVIFGRQHSAPKDE

Variants of: B1
Assay: enrichment ratio after two sorts for PhoP signalling (ratio (wild type AVST 3.29)); higher = more functional
Conditions: with PhoP (E. coli)

Row | Variant | enrichment ratio
1 | MRRS | ≤ 0.25
2 | IIQP | ≤ 0.25
3 | FIEG | 5.56
4 | MQAP | ≤ 0.25
5 | MEGT | ≤ 0.25
6 | LSFH | 0.483
7 | YCKL | ≤ 0.25
8 | IPNG | ≤ 0.25
9 | YMGE | ≤ 0.25
10 | TDCP | ≤ 0.25
11 | IPMD | ≤ 0.25
12 | VPLG | ≤ 0.25
13 | PLPS | ≤ 0.25
14 | IKYH | ≤ 0.25
15 | WQRC | ≤ 0.25
16 | YKDM | ≤ 0.25
17 | HVFD | ≤ 0.25
18 | LYGI | ≤ 0.25
19 | WPLH | ≤ 0.25
20 | KHRQ | ≤ 0.25
21 | ESAY | ≤ 0.25
22 | FWRE | ≤ 0.25
23 | HIIL | ≤ 0.25
24 | KHDR | ≤ 0.25
25 | YATG | ≤ 0.25

Row | Variant | enrichment ratio
26 | TVNV | 2.21
27 | DGFL | ≤ 0.25
28 | PFIH | ≤ 0.25
29 | YTIN | ≤ 0.25
30 | EKHI | ≤ 0.25
31 | NVVW | ≤ 0.25
32 | LVPG | ≤ 0.25
33 | MMWA | ≤ 0.25
34 | TPVR | ≤ 0.25
35 | RFIV | ≤ 0.25
36 | GVWR | ≤ 0.25
37 | NLWR | ≤ 0.25
38 | SRKT | ≤ 0.25
39 | TVCN | 26.1
40 | NMFG | ≤ 0.25
41 | RWIL | ≤ 0.25
42 | HAST | ≤ 0.25
43 | PMME | ≤ 0.25
44 | QRHN | ≤ 0.25
45 | AYAN | ≤ 0.25
46 | TYAM | 1.1
47 | WCFQ | ≤ 0.25
48 | LDKT | ≤ 0.25
49 | MGVD | ≤ 0.25
50 | RYYP | ≤ 0.25

Row | Variant | enrichment ratio
51 | ILRD | ≤ 0.25
52 | HKQY | ≤ 0.25
53 | LITM | ≤ 0.25
54 | QPKS | ≤ 0.25
55 | DCIF | ≤ 0.25
56 | QLRN | ≤ 0.25
57 | YSMF | 0.959
58 | RTWN | ≤ 0.25
59 | TLHD | ≤ 0.25
60 | MFCH | ≤ 0.25
61 | HLTP | ≤ 0.25
62 | TERC | ≤ 0.25
63 | TGAI | 12.3
64 | GGLV | 13.7
65 | ITFR | ≤ 0.25
66 | GNPM | ≤ 0.25
67 | EVAT | ≤ 0.25
68 | MDGC | ≤ 0.25
69 | HRET | ≤ 0.25
70 | KNQS | ≤ 0.25
71 | MNPE | ≤ 0.25
72 | VVYM | ≤ 0.25
73 | AELC | 9.07
74 | LPTD | ≤ 0.25
75 | KFTG | ≤ 0.25

Row | Variant | enrichment ratio
76 | VGKA | ≤ 0.25
77 | HPWT | ≤ 0.25
78 | FTIM | 7.77
79 | TNWE | ≤ 0.25
80 | ALWV | ≤ 0.25
81 | MNHM | ≤ 0.25
82 | FHFQ | ≤ 0.25
83 | KHST | ≤ 0.25
84 | INRK | ≤ 0.25
85 | RACY | ≤ 0.25
86 | WRVP | ≤ 0.25
87 | IPCE | ≤ 0.25
88 | VLSG | ≤ 0.25
89 | ICTG | ≤ 0.25
90 | DHNC | ≤ 0.25
91 | IENW | ≤ 0.25
92 | ANGV | 10.9
93 | DDRP | ≤ 0.25
94 | NKPW | ≤ 0.25
95 | EPLV | ≤ 0.25
96 | GYER | ≤ 0.25
97 | HLVN | ≤ 0.25
98 | WVLL | ≤ 0.25
99 | SDEK | ≤ 0.25
100 | VMQA | ≤ 0.25

Row | Variant | enrichment ratio
101 | MLER | ≤ 0.25
102 | HMFW | ≤ 0.25
103 | KDWF | ≤ 0.25
104 | FMPT | ≤ 0.25
105 | NYLV | ≤ 0.25
106 | PTET | ≤ 0.25
107 | QGPN | ≤ 0.25
108 | WWPH | ≤ 0.25
109 | DYWL | ≤ 0.25
110 | VMQF | ≤ 0.25
111 | PHNM | ≤ 0.25
112 | TAQY | ≤ 0.25
113 | HQAA | ≤ 0.25
114 | PHNR | ≤ 0.25
115 | KKPH | ≤ 0.25
116 | NDVQ | ≤ 0.25
117 | RYSF | ≤ 0.25
118 | LTDV | ≤ 0.25
119 | GDRC | ≤ 0.25
120 | QDVY | ≤ 0.25
121 | KCLP | 1.04
122 | TPMY | ≤ 0.25
123 | RDQK | ≤ 0.25
124 | YETL | ≤ 0.25
125 | YVTA | 0.38

Row | Variant | enrichment ratio
126 | RQLL | ≤ 0.25
127 | SHIV | ≤ 0.25
128 | RALN | ≤ 0.25
129 | WCHV | ≤ 0.25
130 | MTHR | ≤ 0.25
131 | PIQV | ≤ 0.25
132 | PGVT | ≤ 0.25
133 | QQHY | 21.2
134 | DAMN | ≤ 0.25
135 | QKQA | ≤ 0.25
136 | DLYW | ≤ 0.25
137 | PCKA | ≤ 0.25
138 | GYQQ | ≤ 0.25
139 | WFRA | ≤ 0.25
140 | PAGQ | ≤ 0.25
141 | VDPN | ≤ 0.25
142 | ILTR | ≤ 0.25
143 | QGGN | 14.7
144 | WHRW | ≤ 0.25
145 | IHRA | ≤ 0.25
146 | QQNN | ≤ 0.25
147 | YMTN | ≤ 0.25
148 | VKHA | ≤ 0.25
149 | YFND | ≤ 0.25
150 | NEPM | ≤ 0.25

Row | Variant | enrichment ratio
151 | KLLY | ≤ 0.25
152 | ARQH | ≤ 0.25
153 | MAHF | 9.56
154 | RCQK | ≤ 0.25
155 | DIDN | ≤ 0.25
156 | FVFY | ≤ 0.25
157 | SKEC | ≤ 0.25
158 | EMCS | ≤ 0.25
159 | RKRK | ≤ 0.25
160 | DWIT | ≤ 0.25
161 | MPPE | ≤ 0.25
162 | ECGH | ≤ 0.25
163 | DYGM | ≤ 0.25
164 | SRFN | ≤ 0.25
165 | RFNC | ≤ 0.25
166 | PCRN | ≤ 0.25
167 | MIWK | 8.54
168 | MACM | ≤ 0.25
169 | KKKT | ≤ 0.25
170 | CRSF | ≤ 0.25
171 | QFIA | ≤ 0.25
172 | QMVH | ≤ 0.25
173 | IYVM | ≤ 0.25
174 | LWTD | ≤ 0.25
175 | HSAR | ≤ 0.25

Row | Variant | enrichment ratio
176 | DNTT | ≤ 0.25
177 | TDNC | 13.4
178 | SIND | 2.97
179 | PIFP | ≤ 0.25
180 | SCHQ | ≤ 0.25
181 | EQHH | ≤ 0.25
182 | NIPY | ≤ 0.25
183 | MIMM | ≤ 0.25
184 | TTIQ | 0.626
185 | EYHP | ≤ 0.25
186 | MPFH | ≤ 0.25
187 | WEPA | ≤ 0.25
188 | LFML | ≤ 0.25
189 | MPED | ≤ 0.25
190 | PTHW | ≤ 0.25
191 | LEIR | 0.352
192 | VPMA | ≤ 0.25
193 | VTHP | ≤ 0.25
194 | NMYT | ≤ 0.25
195 | WSGN | ≤ 0.25
